# Several values for one entry are separate records, joined by “and”; a condition that tells them apart may be missing. Equal values may be shown once. Inconclusive results, whose numbers are uncertain, are shown with a selection of clear calls. Potencies beside an inconclusive call are fits to weak or partial responses and may not hold up. Activity calls are given as the source filed them. The call rests on the fitted dose curve; in most records, active means well fitted cell-killing curve with a large enough effect; inconclusive means small, poorly fitted or top-dose-only effect, or effect the other way; inactive means no such curve, though single readings can be large or run the other way.
# Assay: Viability qHTS for spleen associated tyrosine kinase inhibitor (SYKi) naive MV4-11 cells (AID 1963823); further: nearly all actives have a fitted effect of over 40% in size
# Details: MV4-11 AML viability, CellTiter-Glo luminescence, 72 h; viability (% of control): at 45 µM (top of the series)
# Summary of the method: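 qHTS, SYK inhibitor-naive MV4-11; 500 cells/well; 72 hr compound exposure, 37 C; CellTiter-Glo added, 10 min RT; luminescence read.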
# Potency means the concentration at half of the fitted maximal effect; tags describe the fitted curve by direction and shape.
SMILES,Potency,viability (% of control)
Nc1nc(NCC2CCC(CNS(=O)(=O)c3cccc4ccccc34)CC2)nc2ccccc12 (configuration not stated),"inconclusive: 3.26 µM [cytotoxic, full curve]",
Cc1csc2c(N[C@@H](C)CN3CCN(S(=O)(=O)c4ccc(Cl)c(Cl)c4)CC3)ncnc12,active: 0.259 µM,
COc1cc(/C=C/C(=O)O[C@H]2[C@@H]3C=CO[C@@H](O[C@@H]4O[C@H](CO)[C@@H](O)[C@H](O)[C@H]4O)[C@@H]3[C@@]3(CO)O[C@@H]23)ccc1O,,inactive: 82.9% [at 17.3 µM]
Cc1cc(Nc2nc(NC(C)c3ccc(F)cc3)c(C#N)cc2F)n[nH]1 (configuration not stated),"inconclusive: 0.461 µM [cytotoxic, full curve]",
Cc1noc(-c2ccc(-c3ccc(CC(=O)O)cc3)cc2)c1NC(=O)O[C@H](C)c1ccccc1Cl,"inconclusive: 16.4 µM [cytotoxic, partial curve]",
CC(C)N(CCC(=O)c1ccc2ccccc2c1)Cc1ccccc1,"active: 2.35 µM and inconclusive: 2.59 µM [cytotoxic, full curve]",
C=C1C(=O)OC2CC(C)C(CCC(C)=O)=CCC12 (configuration not stated),active: 8.2 µM,
C=C1C(=O)OC2C3=C(C)C(=O)CC3C(C)CC(O)C12 (configuration not stated),active: 13 µM,
CCN1CCc2nc(N)oc2CC1,,inactive: 38.8%
CN(C)CCCn1cc(C2=C(c3c[nH]c4ccccc34)C(=O)NC2=O)c2ccccc21,active: 0.0731 µM,
Cc1ccc(C(=O)/C=C/c2ccccc2)s1,active: 8.2 µM,
Nc1ccn([C@H]2O[C@@H](CO)[C@H](O)[C@H]2O)c(=O)n1,"inconclusive: 1.84 µM [cytotoxic, full curve]",
CC(/C=C/[C@@H]1C[C@]1(C)c1ccc2c(c1)C(C)(C)CCC2(C)C)=C\C(=O)O,active: 0.0661 µM,
C/C(=C\c1csc(C)n1)[C@@H]1C[C@@H]2O[C@]2(C)CCC[C@H](C)[C@H](O)[C@@H](C)C(=O)C(C)(C)[C@@H](O)CC(=O)N1,"inconclusive: 0.0186 µM [cytotoxic, full curve]",
C=C1C(=O)OC2/C=C(\C)CC/C=C(\C=O)C(OC)C(OC(=O)C(C)CC)C12 (configuration not stated),active: 3.21 µM,
CC(=O)/C=C/C1(O)C(C)CC(O[C@@H]2O[C@H](CO)[C@@H](O)[C@H](O)[C@H]2O)CC1(C)C (some centres not stated),,inactive: 73.2% [at 17.3 µM]
C[C@@H]1O[C@@H](O[C@H]2[C@H](O[C@H]3[C@H](O[C@H]4CC[C@@]5(C)C(CC[C@]6(C)C5CC=C5[C@@H]7CC(C)(C)CC(=O)[C@]7(C)CC[C@]56C)[C@@]4(C)CO)O[C@H](C(=O)O)[C@@H](O)[C@@H]3O)O[C@H](CO)[C@H](O)[C@@H]2O)[C@H](O)[C@H](O)[C@H]1O (some centres not stated),,inactive: 81.7% [at 9.25 µM]
COc1cccc2c1C(=O)c1c(O)c3c(c(O)c1C2=O)C[C@@](O)(C(C)=O)C[C@@H]3O[C@H]1C[C@H](N)[C@H](O)[C@H](C)O1,"inconclusive: 26.6 nM [cytotoxic, full curve] and inconclusive: 14.8 nM [cytotoxic, full curve]",
CC(=O)OC[C@@]12[C@H](O)C[C@]3(C)C(=CCC4[C@@]5(C)CC[C@H](O[C@@H]6O[C@H](C(=O)O)[C@@H](O[C@@H]7O[C@H](CO)[C@@H](O)[C@H](O)[C@H]7O)[C@H](O)[C@H]6O[C@@H]6O[C@H](CO)[C@@H](O)[C@H](O)[C@H]6O)[C@](C)(CO)C5CC[C@]43C)[C@@H]1CC(C)(C)[C@@H](OC(C)=O)[C@@H]2O (some centres not stated),,inactive: 96.3% [at 9.25 µM]
CC1(C)CC[C@]2(C(=O)O[C@@H]3O[C@H](CO[C@@H]4O[C@H](CO)[C@@H](O)[C@H](O)[C@H]4O[C@@H]4O[C@H](CO)[C@H](O)[C@H](O)[C@H]4O)[C@@H](O)[C@H](O[C@@H]4O[C@H](CO)[C@@H](O)[C@H](O)[C@H]4O)[C@H]3O)CC[C@]3(C)C(=CCC4[C@@]5(C)CC[C@H](O[C@@H]6OC[C@@H](O)[C@H](O)[C@H]6O)[C@@](C)(C(=O)O)C5CC[C@]43C)[C@@H]2C1 (some centres not stated),,inactive: 76.7% [at 9.25 µM]
Cc1cc2sc(NC(=O)Cc3ccccc3)nc2cc1Cl,"inconclusive: 0.206 µM [rising, full curve]",
CC1=C(/C=C/C(C)=C/C=C/C(C)=C\C(=O)O)C(C)(C)CCC1,"inconclusive: 4.17 µM [cytotoxic, partial curve]",

# — PubChem BioAssay (NCATS)
